# According to paper PMC7819943, “Rice protein-binding microarrays: a tool to detect cis-acting elements near promoter regions in rice”:
# The list shows a part of the results.
# Target: T1, OsWOX13 (Oryza sativa, UniProt Q5QMM3 1-267)
# T1 sequence: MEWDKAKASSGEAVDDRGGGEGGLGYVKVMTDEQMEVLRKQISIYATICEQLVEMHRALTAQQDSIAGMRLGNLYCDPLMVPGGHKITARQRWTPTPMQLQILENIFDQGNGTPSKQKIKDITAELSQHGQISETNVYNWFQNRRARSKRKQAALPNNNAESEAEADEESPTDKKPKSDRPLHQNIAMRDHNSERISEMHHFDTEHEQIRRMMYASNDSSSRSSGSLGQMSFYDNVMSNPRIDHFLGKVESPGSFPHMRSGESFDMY
# Assay: protein-binding microarray (RPBM); PBS, 2% BSA, 51.3 ng/ul salmon testes DNA, 50 uM zinc acetate, 200 nM TF, 25 C, 1 h; high values mean tight binding
# Conditions: protein: recombinant; tags: N-terminal polyhistidine and DsRed monomer fusion (pET32a); label: CyDye5-dUTP incorporated in the synthesized complementary strand; 3' TTTTT single-stranded linker to array surface; dsDNA, one strand shown
# Outline: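 Ni–NTA purification followed expression in E. coli BL21-CodonPlus of transcription factors fused N-terminally to a polyhistidine tag and DsRed. At 200 nM in PBS with 2% BSA, salmon testes DNA and 50 µM zinc acetate, the protein was incubated for 1 h at 25 °C with a custom Agilent array that had been primer-extended with Cy5-dUTP and blocked with 2% BSA. After washing, the array was read on an Axon 4000B scanner. The binding signal is per-feature fluorescence intensity in arbitrary units.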
row,Sequence,binding signal
1,AAAACGTGTTAACGAAATTAGATAAAATCTGTACTGTCATCGGAGTCACCTAGTGCAG,4360 fluorescence intensity (a.u.)
2,GAGAATTAATTTACTCGGATATAATTACTTCTAATGAGGTCGGAGTCACCTAGTGCAG,35200 fluorescence intensity (a.u.)
3,TAAATGATTTTCCACTAGACCCACATATCATATACAACGACGGAGTCACCTAGTGCAG,5260 fluorescence intensity (a.u.)
4,GAGACCATATCATTGATAGATACATGCATGCATCCTACTACGGAGTCACCTAGTGCAG,7660 fluorescence intensity (a.u.)
5,AAATCCCACTCCAATCACCACCACCTCTTCTCCAATTCCACGGAGTCACCTAGTGCAG,3840 fluorescence intensity (a.u.)
6,CACAAAGCCTTAGATTGATTCCGCATGTGTTGCGTGGAGGCGGAGTCACCTAGTGCAG,20700 fluorescence intensity (a.u.)
7,ATAATTAGTGTCCAAATATCCGATGTGATAGGAACTTAAACGGAGTCACCTAGTGCAG,5010 fluorescence intensity (a.u.)
8,CTTTAATTAGGATGTGCCACTTATCTAAGGAATAAATAACCGGAGTCACCTAGTGCAG,14300 fluorescence intensity (a.u.)
9,GCTGATTAGTTTCACTGTTGAGCCATCGTGCAACATTGCACGGAGTCACCTAGTGCAG,28100 fluorescence intensity (a.u.)
10,GTGATTTTCTATATCAATCTCATGTAAACTGGATTAGGACCGGAGTCACCTAGTGCAG,16400 fluorescence intensity (a.u.)
11,GTGTGTGTGTAATCAATCACAATAAATAAACATCCCCTCTCGGAGTCACCTAGTGCAG,11700 fluorescence intensity (a.u.)
12,AACTAACTAGGAGTATTAATTAATTCCTTCCACTAATTACCGGAGTCACCTAGTGCAG,9140 fluorescence intensity (a.u.)
13,GCAATGAATGAATGAATGAATAGCGGTGACTCTGGTCCTGCGGAGTCACCTAGTGCAG,3500 fluorescence intensity (a.u.)
14,TGCCAGACTGACAGTCACTTGTACACGCAGTATAATATCCCGGAGTCACCTAGTGCAG,3720 fluorescence intensity (a.u.)
15,CAACAGATTAATGACATGTCAACAGCTGCATGCTCTAGCTCGGAGTCACCTAGTGCAG,14200 fluorescence intensity (a.u.)
16,CGAAAATTGATTTTCCCATGCGGACATCTTAAGACCACCGCGGAGTCACCTAGTGCAG,31500 fluorescence intensity (a.u.)
17,AACTACCTTCCCTTAATTATTACATGAATGGCACCTCTTGCGGAGTCACCTAGTGCAG,4730 fluorescence intensity (a.u.)
18,GGCGAAATTGACTGCAATTTGACAATTAGATCATGCACCACGGAGTCACCTAGTGCAG,46700 fluorescence intensity (a.u.)
19,AGTAAATTGCATAGTGACTGCTATCAATGTAACGAACGCCCGGAGTCACCTAGTGCAG,31500 fluorescence intensity (a.u.)
20,GCTGACTGTTGCTGTTGTATATATGTAGTAGTAGTGTACACGGAGTCACCTAGTGCAG,6070 fluorescence intensity (a.u.)
21,TGCTTGATATTAATTAGGACACGCATATTTATATTATGTTCGGAGTCACCTAGTGCAG,13900 fluorescence intensity (a.u.)

row,Sequence,binding signal
1,GATAAATTAATAAAATTATCAAAATTTTATGATTGGTTTACGGAGTCACCTAGTGCAG,54900 fluorescence intensity (a.u.)
2,TTTATATTAATGATTAATTAATAATCAAGTGTCGAACACGCGGAGTCACCTAGTGCAG,41100 fluorescence intensity (a.u.)
3,AATGAGCCAATCCAAAACGTAATTTAGAATGGCCCGTAGCCGGAGTCACCTAGTGCAG,8650 fluorescence intensity (a.u.)
4,GAATGATTTGTCTTGGTAGATCTACTCTGAAGATATTATACGGAGTCACCTAGTGCAG,7490 fluorescence intensity (a.u.)
5,GTTAATTGAATCCATGCAACTGTAAATATGCCAATTCGGACGGAGTCACCTAGTGCAG,29200 fluorescence intensity (a.u.)
6,TCATTAACACATAATTAATTAAGTACTCCCTCCGTATTTTCGGAGTCACCTAGTGCAG,20200 fluorescence intensity (a.u.)
7,TTCGTCACAAACTAATTAAGTTTCCCCTTCACTCCAGCCACGGAGTCACCTAGTGCAG,6480 fluorescence intensity (a.u.)
8,TTGGTCGTAATTTTGTTCTTGCAATTAAATATTTATGGAGCGGAGTCACCTAGTGCAG,6220 fluorescence intensity (a.u.)
9,ACCGAATTTGTAGAATAATTTGTCAATATCTCAAATATCACGGAGTCACCTAGTGCAG,4140 fluorescence intensity (a.u.)
10,CATGATCGAGATGGAGTTCTAATTTATTGGTTGTATTGTACGGAGTCACCTAGTGCAG,6510 fluorescence intensity (a.u.)
11,ACTTACTGTCAATCCTCATTGTGTATGCAAGTTTTGTGATCGGAGTCACCTAGTGCAG,6020 fluorescence intensity (a.u.)
12,TGTTAGAGGATTGACTGTTCCAACAAGATTATTACAATAGCGGAGTCACCTAGTGCAG,10200 fluorescence intensity (a.u.)
13,CATAATCTATCAATTTTCAATTAGAAAATTGACTCTGACTCGGAGTCACCTAGTGCAG,36300 fluorescence intensity (a.u.)
14,CACACCTAATCGCAGTAAATTGTTACTCCCTCCGTCCCATCGGAGTCACCTAGTGCAG,3170 fluorescence intensity (a.u.)
15,TTCTTTTCTATCATTGGCTTTTGAATTGCTAAGAACATAACGGAGTCACCTAGTGCAG,5040 fluorescence intensity (a.u.)
16,TGTTATTGTCTATTTGGCTTCACCTTATTGATTTAGCAAACGGAGTCACCTAGTGCAG,3480 fluorescence intensity (a.u.)
17,GCCAAATCATTTGCAGAATTATTTATCTGGCATAAACAAACGGAGTCACCTAGTGCAG,5080 fluorescence intensity (a.u.)
18,CTTTGATTTACCCTTTCGCGCACCAAACACCAAACCCTCGCGGAGTCACCTAGTGCAG,13300 fluorescence intensity (a.u.)
19,ACATGATGGACCAAATGCTCTGGAACAACCTGATTCAGAGCGGAGTCACCTAGTGCAG,6770 fluorescence intensity (a.u.)
20,TGACTGATTGGACCCACCCGTCAGCGTGATTACGAGGACGCGGAGTCACCTAGTGCAG,45400 fluorescence intensity (a.u.)
21,TTCAATCCCAAATTATATGTACACAATTGTGCGGGTTGTTCGGAGTCACCTAGTGCAG,3280 fluorescence intensity (a.u.)
